# In PubChem BioAssay AID651820 (National Center for Advancing Translational Sciences (NCATS), 2012):
# The whole screen tested about 340,000 compounds, of which about 12,000 (3.5%) were called active. This list was built around the results that the source calls inconclusive (neither active nor inactive); the mix of calls is not that of the screen. Calls follow the shape of the dose curve; as a rule, active = well fitted inhibition curve with a large enough effect; inconclusive = small, poorly fitted or top-dose-only effect, or another doubt; inactive = no such curve, though single readings can be large or run the other way. Potencies of inconclusive entries are left out as doubtful fits.
# Test: qHTS Assay for Inhibitors of Hepatitis C Virus (HCV)
# Details: Huh7.5.1 HCVcc-Cre (HCVcc is cell-culture hepatitis C virus) infection, luciferase reporter, 44 h; activity change, negative = inhibition: at 41.8 µM (top of the series)
# How it was run: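 1,000 cells/well; 4 h culture; + compound; + HCVcc-Cre (~0.5 moi); 44 h; luciferase substrate, RT 15 min; read 15 sec.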
# % is scaled to controls: 0 for no effect and ±100 for the full control effect; potency is read from the fitted curve at half-maximal effect; tags tell the direction and shape of the fitted curve.
SMILES,"activity change, negative = inhibition",Potency
O=c1cc(-c2cccc(Cl)c2)oc2cccc(O)c12,inactive: 32.3% [at 8.37 µM],
C=CCOc1ccc(/C=N\NC(N)=S)cc1,,inactive
Cc1ccc(-c2cc(C(=O)NCCCN3CCCC3)c3ccccc3n2)cc1C,,active: 22.4 µM
Cc1ccc(NC(=S)Nc2ccc(Cl)c(Cl)c2)c(OC(F)F)c1,,"inconclusive [inhibitor, partial curve]"
C/C(=N\NC(=O)c1c(Cl)c(C)nn1C)c1ccc(NC(=O)c2ccncc2)cc1,,"inconclusive [inhibitor, single point]"
CN(C)CC(O)COc1cccc(OCC(O)CN(C)C)c1 (stereo not drawn),,inactive
Cc1ccc2nsnc2c1NC(=O)CCl,,inactive
CC1Cc2cc(S(=O)(=O)N3CCCCC3)ccc2N1C(=O)C1CCC1 (stereo not drawn),,inactive
Cc1ccc(CN2CCN(Cc3cnc(N4CCOCC4)s3)CC2CCO)cc1 (stereo not drawn),,"inconclusive [inhibitor, partial curve]"
COc1ccc(-c2cc(=O)c3c(C)cc(O)cc3o2)cc1,,"inconclusive [inhibitor, partial curve]"
Cc1ccsc1C(=O)C1CCCN(Cc2cccc(-n3cccn3)c2)C1 (stereo not drawn),,"inconclusive [inhibitor, partial curve]"
O=C(N/N=C/c1ccc(Br)s1)c1cccs1,,"inconclusive [inhibitor, single point]"
CC(=O)c1ccc(NC(=S)N2CCC(Cc3ccccc3)CC2)cc1,,"inconclusive [inhibitor, single point]"
C=CCn1cccc(/C=C/C(=O)c2ccc(C(C)(C)C)cc2)c1=S,,active: 10 µM
O=C(/C=C/c1ccc(Cl)cc1)Nc1ccc(N2CCOCC2)cc1,,inactive
O=C(Nc1nnc(CCc2ccccc2)s1)c1ccco1,,"inconclusive [inhibitor, full curve, poor fit]"
Brc1ccc(N/N=C(/N=Nc2nn[nH]n2)c2ccccc2)cc1,,active: 5.62 µM
CSc1cccc(NC(=O)c2cccc3cccnc23)c1,,"inconclusive [inhibitor, partial curve]"
COc1ccc2oc(C(=O)OCC(=O)N(C)c3ccccc3)c(C)c2c1,,"inconclusive [inhibitor, single point]"
COc1ccc(/C=N/N=C2/NC(=O)CC(C(=O)O)S2)cc1 (stereo not drawn),,inactive
Cc1ccccc1NC(=O)NNC(=O)CCc1ccccc1,,inactive
COC(=O)c1cccc(Cn2c(Cl)c(/C=N/NC(=O)c3ccccc3Cl)sc2=O)c1,,"inconclusive [inhibitor, partial curve]"
CC(=O)OC[C@H]1O[C@@H](Sc2cccc3cccnc23)[C@H](OC(C)=O)[C@@H](OC(C)=O)[C@H]1OC(C)=O,,inactive
CCCn1nc2cc(C(=O)NCc3ccc4c(c3)OCO4)ccc2c1OCC,,"inconclusive [inhibitor, full curve]"
COc1ccc(N(CCCN2C(=O)c3cccc4cccc(c34)C2=O)C(=O)c2cccc(OC)c2)cc1,,active: 11.2 µM
COc1ccc(Cl)cc1NC(=S)NCCN1CCOCC1,,inactive

SMILES,"activity change, negative = inhibition",Potency
C=CCNC(=O)c1ccccc1NC(=O)c1ccc(Cl)c(S(=O)(=O)Nc2ccccc2)c1,,"inconclusive [inhibitor, full curve, poor fit]"
CCN1CCN(C(=O)COc2ccc(S(=O)(=O)N(C)Cc3ccccc3)cc2)CC1,,"inconclusive [inhibitor, single point]"
Cc1ccc(-n2cc(-c3ccccc3)c3c(=O)[nH]cnc32)cc1,,inactive
CCC(=O)c1ccc(N2CCCC2)c(F)c1,,inactive
COc1cc(C)nc(N(Cc2ccccc2)S(=O)(=O)c2ccccc2)n1,,"inconclusive [inhibitor, single point]"
O=C1CC/C=C\C[C@@H](CC(=O)N(CCO)Cc2ccccc2)C(=O)N2CCC[C@H]2CO1,,"inconclusive [inhibitor, single point]"
COc1cccc(/C=C/C(=O)OCC(=O)Nc2nnc(-c3ccccc3)o2)c1,,inactive
COc1cc(Cl)c(C)cc1NC(=O)CC1CCCC1,,"inconclusive [inhibitor, partial curve]"
N#Cc1c(N)nc2c3c(sc(=N)c2c1N)NC(=O)CC3c1c(F)cccc1Cl (stereo not drawn),,inactive
O=C(NCc1ccccn1)C(C(=O)c1ccc(F)cc1)n1ccccc1=O (stereo not drawn),,inactive
CCOC(=O)c1sc(NC(=O)/C=C/c2cnn(C)c2C)c(C(=O)OC(C)C)c1C,,"inconclusive [inhibitor, partial curve]"
O=C(N/N=C/c1ccc(F)cc1)c1ccc(Br)cc1,,inactive
COc1ccc2ccccc2c1CNC(C)CCc1ccccc1 (stereo not drawn),,"inconclusive [inhibitor, single point]"
COc1ccc2c(c1)CCc1c(C(=O)N3CC4(C)CC3CC(C)(C)C4)noc1-2 (stereo not drawn),,"inconclusive [inhibitor, single point]"
C=CCc1cc(C)ccc1OCCCn1ccnc1,,"inconclusive [inhibitor, partial curve]"
Cc1cccc(NC(=O)c2cc(NC(=O)CCCC(=O)O)ccc2Cl)n1,,"inconclusive [inhibitor, partial curve]"
Cc1ccccc1CN1C(=O)c2ccccc2Sc2ccc(C(=O)NCCN3CCOCC3)cc21,,"inconclusive [inhibitor, partial curve, poor fit]"
CC/C(=C\c1oc2cc3ccccc3cc2[n+]1CC)Nc1ccccc1,,inactive
Cc1cccc(C)c1OCCOC(=O)c1n[nH]c2ccccc12,,"inconclusive [inhibitor, single point]"
O=C(CS(=O)(=O)Cc1ccccc1)NCc1ccco1,,inactive
Cc1nc(-c2cccc(S(=O)(=O)N3CC(C)CC(C)C3)c2)cs1 (stereo not drawn),,"inconclusive [inhibitor, single point]"
CCOc1ccc(NC(=O)Nc2cc(C)ccc2OC)cc1,,active: 11.2 µM
Cc1nc(N2CCN(c3ccccc3)CC2)nc2c1C(=O)CC(c1ccccc1)C2 (stereo not drawn),,inactive
COc1ccc(NS(=O)(=O)c2ccc3nc(COc4cccc5ccccc45)[nH]c3c2)cc1,,"inconclusive [inhibitor, single point]"
CN1CCN(c2ccc(Nc3ccnc4cc(Cl)ccc34)cc2)CC1,,"inconclusive [inhibitor, full curve]"
CSc1nc(-c2ccccc2)c2cc(Cl)ccc2n1,,"inconclusive [inhibitor, single point]"

SMILES,"activity change, negative = inhibition",Potency
Cc1cccc(CS(=O)(=O)c2ncc(Cl)c(C(=O)Nc3nnc(C(C)C)s3)n2)c1,,active: 11.2 µM
CCc1cc(SC#N)cc(CC)c1NC(=O)CCl,,"inconclusive [inhibitor, single point]"
Nc1ccc2c(c1)C(=O)c1ccc(N)cc1-2,,"inconclusive [inhibitor, single point]"
O=C(Nc1ccc(N2CCCCC2)cc1)c1ccccn1,,inactive
COc1ccc(NS(=O)(=O)c2ccc(-c3coc(C)n3)cc2)cc1,,"inconclusive [inhibitor, single point]"
CCOC(=O)c1c(NC(=O)C2=C(C)NC(=S)NC2c2ccc(C)cc2)sc(C)c1C (stereo not drawn),,active: 10 µM
O=C(NC(=S)Nc1cccc(Cl)c1Cl)C1CC1,,inactive
CCN(CC(=O)NCc1cccs1)c1ccc(S(=O)(=O)N2CCN(C)CC2)cn1,,inactive
C(=N\NC1=Nc2cccc3cccc1c23)/c1ccccn1,,active: 2.82 µM
CCC(=O)Nc1cccc(NC(=S)NC(=O)c2ccc(Cl)cc2)c1,,"inconclusive [inhibitor, single point]"
CCOC(=O)c1c(-c2ccccc2)csc1NC(=O)CSc1nncs1,,"inconclusive [inhibitor, single point]"
Cc1ccccc1-c1cc(-c2ccccc2O)on1,,"inconclusive [inhibitor, single point]"
CC(=O)c1c(C)[nH]c(C(=O)NNC(=O)c2ccc(C)cc2)c1C,,"inconclusive [inhibitor, single point]"
CCOc1ccccc1NC(=S)N1CCN(c2cccc(OC)c2)CC1,,inactive
CCOC(=O)c1cnc2c(CC)cccc2c1NCCCN1CCOCC1,,inactive
Cc1nn(C)c(C)c1C(C)NC(=O)c1ccc(OC2CCN(Cc3ccccn3)CC2)cc1 (stereo not drawn),,"inconclusive [inhibitor, partial curve]"
N#Cc1ccc(NC(=O)Cn2cnc(S(=O)(=O)N3CCc4ccccc43)c2)cc1,,inactive
Nc1c(N(CCC2=CCCCC2)C(=O)CCCOc2ccccc2)c(=O)[nH]c(=O)n1Cc1ccccc1,,inactive
Cc1ccc(Nc2cc(C)nc3ncnn23)cc1,,inactive
Cc1ccccc1OCC(=O)Nc1ccc2oc(=O)ccc2c1,,inactive
O=C(OCc1ccccc1)N(CCCCN(CCCNCc1ccccc1)C(=O)OCc1ccccc1)CCCNCc1ccccc1,,active: 10 µM
C/C(=N\NC(=S)NC(C)C)c1cccc([N+](=O)[O-])c1,,inactive
NC(=O)NC(=O)CC1S/C(=N/N=C2\CSC(=O)N2)NC1=O (stereo not drawn),,inactive
C=C1C(=O)O[C@@H]2[C@H]1[C@@H](OC(=O)/C(C)=C/C)C/C(C)=C\C(=O)/C=C(\C)[C@@H]2O,,active: 11.2 µM
COC(=O)C(Cc1ccc(O)cc1)NC(=O)CCC(=O)Nc1ccc(S(N)(=O)=O)cc1 (stereo not drawn),,inactive
CCCc1nc(Cl)c(C#N)c2c1CCCC2,,"inconclusive [inhibitor, single point]"
